# The list shows a part of the results.
# B1: DBA (Dolichos biflorus) (protein)
# chain: ANIQSFSFKNFNSPSFILQGDATVSSGKLQLTKVKENGFPLRFPSGRAFYSSPIQIYDKFTGAVASWATSFTVKISAPSKASFADGIAFALVPVGSEPRRNGGYLGVFDSDVYNNSAQTVAVEFDTLSNSGWDPSMKHIGIDVNSIKSIATVSWDLANGENAEILITYNAATSLLVVSLVHPSRRTSYILSERVDITNELPEYVGVGFSATTGLSEGYIETHDVLSWSFASRLPDDSTAEPLDLARYLVRNVL
# Tests used:
# Assay in all cases: glycan array binding signal (z-score within array); higher = stronger binding
# Conditions in all cases: glycan notation: IUPAC condensed, linker removed
# [1] = molecular target: Gal(b1-4)GlcNAc(b1-6)[Gal(b1-3)]GalNAc
# Method in brief: (§1)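 The binding signal is a Z-score computed within each array and averaged over linkers. Arrays of the same protein sequence at different concentrations or buffers were also averaged together. Data originate from 3228 arrays in the Consortium for Functional Glycomics database, kept only where the protein sequence was available.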
# [2] = molecular target: Gal(b1-4)GlcNAc(b1-6)[Gal(b1-4)GlcNAc(b1-3)]GalNAc
# Method in brief: as §1
# [3] = molecular target: Gal(b1-4)GlcNAc6P
# Method in brief: as §1
# [4] = molecular target: Gal(b1-6)Gal
# Method in brief: as §1
# [5] = molecular target: Gal3S(b1-3)GalNAc
# Method in brief: as §1
# [6] = molecular target: Gal3S(b1-3)GlcNAc
# Method in brief: as §1
# [7] = molecular target: Gal3S(b1-3)[Fuc(a1-4)]GlcNAc
# Method in brief: as §1
# [8] = molecular target: Gal3S(b1-4)Glc
# Method in brief: as §1
# [9] = molecular target: Gal3S(b1-4)Glc6S
# Method in brief: as §1
# [10] = molecular target: Gal3S(b1-4)GlcNAc
# Method in brief: as §1
# [11] = molecular target: Gal3S(b1-4)GlcNAc6S
# Method in brief: as §1
# [12] = molecular target: Gal3S(b1-4)[Fuc(a1-3)]Glc6S
# Method in brief: as §1
# [13] = molecular target: Gal3S(b1-4)[Fuc(a1-3)]GlcNAc
# Method in brief: as §1
# [14] = molecular target: Gal3S(b1-4)[Fuc(a1-3)]GlcNAc6S
# Method in brief: as §1
# [15] = molecular target: Gal3S4S(b1-4)GlcNAc
# Method in brief: as §1
# [16] = molecular target: Gal3S6S(b1-4)GlcNAc
# Method in brief: as §1
# [17] = molecular target: Gal3S6S(b1-4)GlcNAc6S
# Method in brief: as §1
# [18] = molecular target: Gal4S(b1-4)GlcNAc
# Method in brief: as §1
# [19] = molecular target: Gal4S6S(b1-4)GlcNAc
# Method in brief: as §1
# [20] = molecular target: Gal6P(b1-4)GlcNAc
# Method in brief: as §1
# [21] = molecular target: Gal6S(b1-3)GlcNAc
# Method in brief: as §1
# [22] = molecular target: Gal6S(b1-3)GlcNAc6S
# Method in brief: as §1
# [23] = molecular target: Gal6S(b1-4)Glc
# Method in brief: as §1
# [24] = molecular target: Gal6S(b1-4)Glc6S
# Method in brief: as §1
# [25] = molecular target: Gal6S(b1-4)GlcNAc
# Method in brief: as §1
# [26] = molecular target: Gal6S(b1-4)GlcNAc6S
# Method in brief: as §1
# [27] = molecular target: GalNAc(a1-3)Gal
# Method in brief: as §1
# [28] = molecular target: GalNAc(a1-3)GalNAc
# Method in brief: as §1
# [29] = molecular target: GalNAc(a1-3)GalNAc(a1-3)Gal(a1-4)Gal(b1-4)GlcNAc
# Method in brief: as §1
# [30] = molecular target: GalNAc(a1-3)GalNAc(b1-3)Gal(a1-4)Gal(b1-4)Glc
# Method in brief: as §1
# [31] = molecular target: GalNAc(b1-3)Gal
# Method in brief: as §1
# [32] = molecular target: GalNAc(b1-3)Gal(a1-4)Gal(b1-4)GlcNAc
# Method in brief: as §1
# [33] = molecular target: GalNAc(b1-3)Gal(a1-4)Gal(b1-4)GlcNAc(b1-3)Gal(b1-4)Glc
# Method in brief: as §1
# [34] = molecular target: GalNAc(b1-3)Gal(a1-6)Gal(b1-4)Glc
# Method in brief: as §1
# [35] = molecular target: GalNAc(b1-3)GalNAc
# Method in brief: as §1
# [36] = molecular target: GalNAc(b1-3)GlcNAc
# Method in brief: as §1
# [37] = molecular target: GalNAc(b1-4)Gal(b1-4)Glc
# Method in brief: as §1
# [38] = molecular target: GalNAc(b1-4)GlcNAc
# Method in brief: as §1
# [39] = molecular target: GalNAc(b1-4)GlcNAc(b1-2)Man
# Method in brief: as §1
# [40] = molecular target: GalNAc(b1-4)GlcNAc(b1-2)Man(a1-3)[GalNAc(b1-4)GlcNAc(b1-2)Man(a1-6)]Man(b1-4)GlcNAc(b1-4)GlcNAc
# Method in brief: as §1
# [41] = molecular target: GalNAc(b1-4)GlcNAc(b1-3)GalNAc(b1-4)GlcNAc
# Method in brief: as §1
# [42] = molecular target: GalNAc(b1-4)GlcNAc6S
# Method in brief: as §1
# [43] = molecular target: GalNAc(b1-6)GalNAc
# Method in brief: as §1
# [44] = molecular target: GalNAc3S(b1-4)GlcNAc
# Method in brief: as §1
# [45] = molecular target: GalNAc3S(b1-4)GlcNAc3S
# Method in brief: as §1
binder,measurement,setting,value
B1,glycan array binding signal (z-score),[1],-0.121
same,glycan array binding signal (z-score),[2],-0.113
same,glycan array binding signal (z-score),[3],-0.091
same,glycan array binding signal (z-score),[4],-0.041
same,glycan array binding signal (z-score),[5],-0.153
same,glycan array binding signal (z-score),[6],-0.136
same,glycan array binding signal (z-score),[7],-0.095
same,glycan array binding signal (z-score),[8],-0.125
same,glycan array binding signal (z-score),[9],-0.123
same,glycan array binding signal (z-score),[10],-0.127
same,glycan array binding signal (z-score),[11],-0.187
same,glycan array binding signal (z-score),[12],0.118
same,glycan array binding signal (z-score),[13],-0.12
same,glycan array binding signal (z-score),[14],-0.121
same,glycan array binding signal (z-score),[15],-0.124
same,glycan array binding signal (z-score),[16],-0.127
same,glycan array binding signal (z-score),[17],-0.164
same,glycan array binding signal (z-score),[18],-0.164
same,glycan array binding signal (z-score),[19],-0.128
same,glycan array binding signal (z-score),[20],-0.185
same,glycan array binding signal (z-score),[21],-0.199
same,glycan array binding signal (z-score),[22],-0.14
same,glycan array binding signal (z-score),[23],-0.125
same,glycan array binding signal (z-score),[24],-0.126
same,glycan array binding signal (z-score),[25],-0.161
same,glycan array binding signal (z-score),[26],-0.181
same,glycan array binding signal (z-score),[27],-0.052
same,glycan array binding signal (z-score),[28],12.1
same,glycan array binding signal (z-score),[29],12.5
same,glycan array binding signal (z-score),[30],13.4
same,glycan array binding signal (z-score),[31],-0.122
same,glycan array binding signal (z-score),[32],-0.135
same,glycan array binding signal (z-score),[33],-0.121
same,glycan array binding signal (z-score),[34],-0.087
same,glycan array binding signal (z-score),[35],-0.048
same,glycan array binding signal (z-score),[36],-0.113
same,glycan array binding signal (z-score),[37],-0.087
same,glycan array binding signal (z-score),[38],0.131
same,glycan array binding signal (z-score),[39],-0.093
same,glycan array binding signal (z-score),[40],0.145
same,glycan array binding signal (z-score),[41],0.07
same,glycan array binding signal (z-score),[42],1.8
same,glycan array binding signal (z-score),[43],-0.132
same,glycan array binding signal (z-score),[44],-0.122
same,glycan array binding signal (z-score),[45],-0.174

# Source: the supplement of paper PMC8728848
